From the supplement of paper PMC11417369 come the findings set out here.

± gives the standard deviation of the averaged measurements. Some of the results follow.

In the assay the test system is PfAP2-EXP AP2 domain (GST-tagged). Description: gcPBM binding intensity (ln(normalized median fluorescence intensity)); higher = stronger DNA binding. The method in brief: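 Each value is the highest Masliner-normalised natural-log median intensity across replicate spots of either orientation of a probe. The probes were primer-extended double-stranded 36-bp intergenic genomic sequences on an Agilent 4 × 180k array, alongside negative controls, exposed for 1 h to GST-tagged P. falciparum DNA-binding domains expressed in E. coli. Bound protein was picked up with Alexa488 anti-GST antibody and scanned at 488 nm.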
Regarding “TATATACTTTTATGTACACACCTATAATATGGGTGA [CACACA_site5044]”, the “gcPBM binding intensity (ln)” value came to 8.45 ± 0.33.
The same measure for “ATATCTTATGTTATCACACACACACGCACAAAACAG [CACACA_site6800]”: 9.02 ± 0.28; for “ATTTGTTTACCTAAAAGTACAAATTTTTTATGTATA [XGTACX_site7689]”: 8.37 ± 0.33; for “TGTATTTATAAACATGCACACGTGGTTGTATTTATA [CACACA_site5762]”: 8.81 ± 0.23.
The same measure for “ATTTTTTTTATTTTTTATATAATTTTTTTATATTAT [CACACA_negctrl_site1521]”: 8.44 ± 0.54; for “TGTTTTGTTTTTTGGGGTACATGTTTTGTATTATAT [XGTACX_site7997]”: 9.54 ± 0.71; for “TATCCCTTAGAATACACACCCATATGAGTGTGAACT [CACACA_site7398]”: 8.38 ± 0.38.
Turning to “ATAATATATATATATGCATGTACATATTTATCTTTA [TGCATGCA_site32]”, the “gcPBM binding intensity (ln)” value stood at 8.78 ± 0.35.
As for “AAGGCAAGCACTTAAACATGCATATAATAATATCAT [TGCATGCA_site698]”, the figure is 8.72 ± 0.17; as for “ATGTATTAAAAAAATTGTACTATAAAATGTAACCGC [XGTACX_site8083]”, 8.79 ± 0.32; as for “AAAAAAAAAAAAAACATACACACAAATATATACATA [CACACA_site4010]”, 8.5 ± 0.58.
Turning to “TATACATACAGACCCACACACAAAAAAAAAAAAAAA [CACACA_site6536]”, the “gcPBM binding intensity (ln)” value came out at 8.19 ± 0.61.
In the case of “ATATTATTTTAAAGTACACACATATATTAATATATA [CACACA_site2315]”, the “gcPBM binding intensity (ln)” value amounted to 8.66 ± 0.15.
For the sequence “ATATATATATATATATGTACATATATATATGTATAT [XGTACX_site3959]”, the “gcPBM binding intensity (ln)” value is 10.2 ± 0.33.
Regarding “TTAATTAAATATTATACACACAAAAAAATAACTTTA [CACACA_site6197]”, the “gcPBM binding intensity (ln)” value was 8.4 ± 0.42.
On to “ATTTATTTATTTATATGTACTTATATATGTATTTTC [XGTACX_site6269]”, for which the “gcPBM binding intensity (ln)” value was determined as 8.85 ± 0.25.
Regarding “TATTGAAACGTATAGACACACATATGATATATATAT [CACACA_site3226]”, the “gcPBM binding intensity (ln)” value came to 9.3 ± 0.085.
As for “TGTATTTAAAATGGTTGTACATAAATAAAAATAAAA [XGTACX_site7771]”, the figure is 8.71 ± 0.38; as for “AAAGTGTTAACCTAATCTTTAGTTTTTAAACAATAT [CACACA_negctrl_site841]”, 8.17 ± 0.4; as for “ATAATATTTTGAAACGGTACACTTTTAAAATACACT [XGTACX_site4423]”, 8.55 ± 0.46.
For the sequence “AAAATAAGGAAAAAAAAAAAAAAAAAAAAAAAAAAG [CACACA_negctrl_site1291]”, the “gcPBM binding intensity (ln)” value is 8.23 ± 0.58.
The same measure for “AAAAAAAAAAAACATACACACAAATATGTACATACA [CACACA_site7807]”: 8.61 ± 0.21; for “TATATATTAATATATGCATGTACGATTATTATAATA [TGCATGCA_site446]”: 8.96 ± 0.42; for “TAAATACAAAAATGTACACACATATAAATATTTTTA [CACACA_site7612]”: 8.31 ± 0.28.
“AATAAAAATCCACAAGCACACAAATGTACTTATATA [CACACA_site8783]”: the “gcPBM binding intensity (ln)” value turned out to be 8.18 ± 0.4.
Consider “AACACTACATAAAACTGTACAATAGTATTTTATTAT [XGTACX_site996]”, for which the “gcPBM binding intensity (ln)” value was 8.4 ± 0.33.
Turning to “ACAAGATGATGGAAATGTACATAAAAAGAATCATAT [XGTACX_site8682]”, the “gcPBM binding intensity (ln)” value amounted to 9.3 ± 0.44.
As for “TTTTTTTTTATATTTAGTACATATATATTATTATAT [XGTACX_site3334]”, the “gcPBM binding intensity (ln)” value turned out to be 8.39 ± 0.31.
In the case of “ATTATTAAAATGATATGTACGCACATAATATACATA [XGTACX_site3236]”, the “gcPBM binding intensity (ln)” value stood at 8.5 ± 0.24.
For the sequence “CTTAGTGTATTTGAATGTACGCATAAATATAATTAT [XGTACX_site2830]”, the “gcPBM binding intensity (ln)” value was determined as 8.6 ± 0.33.
“TATTTATATTTTAACACACACATATTTATATTTATA [CACACA_site7324]”: the “gcPBM binding intensity (ln)” value worked out at 8.43 ± 0.3.
For “ATTTATTCATTTGGGTGTACTATTTAAAAAAAACAA [XGTACX_site498]”, the “gcPBM binding intensity (ln)” value is 8.66 ± 0.35.
Take “TATATTTTTTAAACCACACACAATATAGAGTATAAT [CACACA_site4510]”: the “gcPBM binding intensity (ln)” value was found to be 8.66 ± 0.47.
Consider “TATATATAATTTTATACATGCACATATTATATATAT [TGCATGCA_site1036]”, for which the “gcPBM binding intensity (ln)” value stood at 8.79 ± 0.092.
In the case of “TTTATATACTATTCAAAGTGATAAATAATATATGAA [TGCATGCA_negctrl_site352]”, the “gcPBM binding intensity (ln)” value worked out at 8.21 ± 0.35.
For “TATAAATAAAGACACACACACATATAAATAAATATA [CACACA_site7155]”, the “gcPBM binding intensity (ln)” value amounted to 8.82 ± 0.4.
With “ATTTATTTATTAAGATGTACTTATTAAAAATAATAA [XGTACX_site7392]”, the “gcPBM binding intensity (ln)” value was 8.04 ± 0.35.
“AAAAAAAAAAAACATACACACAATAAAATAGGGGTA [CACACA_site2399]”: the “gcPBM binding intensity (ln)” value worked out at 8.69 ± 0.49.
For “CACATACAGACATACACACACATATAGATTAATATA [CACACA_site6399]”, the “gcPBM binding intensity (ln)” value was found to be 8.59 ± 0.41.
Take “TTAGGGTTTTATAAATGTACTTATTTATACATCCTC [XGTACX_site5769]”: the “gcPBM binding intensity (ln)” value was determined as 8.39 ± 0.42.
With “AATAAGAAATGTAAATGTACATAAAAAAAAGTATAT [XGTACX_site3573]”, the “gcPBM binding intensity (ln)” value turned out to be 9.03 ± 0.49.
The same measure for “TATATATATATATTATGTACATATATATTAAATATG [XGTACX_site2494]”: 9.74 ± 0.38; for “ATTAAATGCAGTTCGGTGCATTAAGGTTATGATGAA [GTGCAC_site9883]”: 8.67 ± 0.16.
The same measure for “ATTTTTTAACATATCATACACACAACCACTTTTTAT [CACACA_site1961]”: 8.82 ± 0.36.
